# Test results reported in the BET-seq Pho4 binding data (Le et al. 2018).
# This is one part of the list. Values were computed here from the reads of four pooled replicates and scatter widely.
# Molecular target: T1, Pho4 (S. cerevisiae) (UniProt P07270)
# T1 sequence: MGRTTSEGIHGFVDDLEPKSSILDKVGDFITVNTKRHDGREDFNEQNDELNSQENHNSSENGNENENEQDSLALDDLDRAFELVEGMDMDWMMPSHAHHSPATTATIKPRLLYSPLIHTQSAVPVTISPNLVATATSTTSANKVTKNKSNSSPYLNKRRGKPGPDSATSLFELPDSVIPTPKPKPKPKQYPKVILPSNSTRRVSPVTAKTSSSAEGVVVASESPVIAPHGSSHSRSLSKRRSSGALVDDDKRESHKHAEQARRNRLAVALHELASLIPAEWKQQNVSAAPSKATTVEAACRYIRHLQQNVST
# Assay: relative binding free energy (BET-seq); higher = weaker binding
# Details: reference: library average
row,Sequence,relative binding free energy
1,ATTGGCACGTGAAAAT,0.19 kcal/mol
2,GGTAGCACGTGAAGAG,0.29 kcal/mol
3,ACGGTCACGTGGTGGG,-0.02 kcal/mol
4,GCACGCACGTGGTTGG,-0.06 kcal/mol
5,TATGGCACGTGATCTG,-0.09 kcal/mol
6,GGTGTCACGTGGTGAA,0.06 kcal/mol
7,TTTCACACGTGTTGAA,0.09 kcal/mol
8,GGGAGCACGTGGAGGC,-0.09 kcal/mol
9,TGAACCACGTGGGTGG,-0.15 kcal/mol
10,TTGAACACGTGCTGTT,-0.09 kcal/mol
11,TTTATCACGTGGGAGT,0.02 kcal/mol
12,ACGTTCACGTGTGCGG,0.19 kcal/mol
13,TACTACACGTGTTTTT,0 kcal/mol
14,TTTAGCACGTGTCTTG,-0.07 kcal/mol
15,GTGTACACGTGGTATA,-0.01 kcal/mol
16,GTTTGCACGTGAGAAG,0.2 kcal/mol
17,TTTACCACGTGGGTAT,-0.04 kcal/mol
18,TTGATCACGTGTGGAT,0.2 kcal/mol
19,GTGTGCACGTGGGACT,-0.08 kcal/mol
20,AGTGTCACGTGTATTT,-0.05 kcal/mol
21,TTAGGCACGTGGTCAG,-0.28 kcal/mol
22,AGTTACACGTGTCGGA,0.21 kcal/mol
23,GGCTGCACGTGGGAAT,0.06 kcal/mol

row,Sequence,relative binding free energy
1,TATGTCACGTGCGATT,0.01 kcal/mol
2,TTGAACACGTGGGGGT,-0.11 kcal/mol
3,AGGTTCACGTGGGATC,0.33 kcal/mol
4,GGAGGCACGTGGGAGG,-0.17 kcal/mol
5,TTTTGCACGTGGTGAT,-0.01 kcal/mol
6,TTAATCACGTGGTCGT,-0.02 kcal/mol
7,GTGAACACGTGTATGT,0.14 kcal/mol
8,GGTAGCACGTGTTTTC,-0.03 kcal/mol
9,CAAGGCACGTGTTTTG,-0.08 kcal/mol
10,TACGGCACGTGGGCTT,-0.2 kcal/mol
11,GAGATCACGTGGTATG,-0.01 kcal/mol
12,GTCGACACGTGATGCG,0.29 kcal/mol
13,CGTGACACGTGTGAGG,0.06 kcal/mol
14,CGGCTCACGTGGTGGG,0.02 kcal/mol
15,TGAGACACGTGTGGGG,0.03 kcal/mol
16,TTGAGCACGTGGCCGT,-0.04 kcal/mol
17,CGAGGCACGTGAGGGC,0.11 kcal/mol
18,TTTCTCACGTGAGGTG,0.48 kcal/mol
19,CAGATCACGTGGGGCG,0.06 kcal/mol
20,TGATACACGTGCTGTG,-0.09 kcal/mol
21,AAGGTCACGTGATATG,0.23 kcal/mol
22,ATGATCACGTGGACGT,0.15 kcal/mol
23,ATTGTCACGTGGGTGC,0 kcal/mol

row,Sequence,relative binding free energy
1,CTGAGCACGTGTTGTG,-0.05 kcal/mol
2,AAATCCACGTGGGTGT,0.01 kcal/mol
3,GGCAGCACGTGAGTGT,0.32 kcal/mol
4,ATGCGCACGTGGGTAG,-0.25 kcal/mol
5,ATGAACACGTGGAGTG,-0.1 kcal/mol
6,TTAATCACGTGTTTCT,0.08 kcal/mol
7,AAGGTCACGTGCATTT,0.23 kcal/mol
8,TATTGCACGTGGGTGA,-0.17 kcal/mol
9,AAGCTCACGTGGGGGC,0.03 kcal/mol
10,CATGACACGTGTGTGG,0.18 kcal/mol
11,AGGGACACGTGGTTTG,0.05 kcal/mol
12,TGCTGCACGTGTGGTG,0.08 kcal/mol
13,TGGTACACGTGGTCTA,-0.17 kcal/mol
14,GCGTGCACGTGGTGTT,-0.08 kcal/mol
15,TTTCGCACGTGGGATA,-0.07 kcal/mol
16,TTTTTCACGTGTGCCA,0.26 kcal/mol
17,TATGTCACGTGGAAGT,0.11 kcal/mol
18,TTGGGCACGTGGAGAC,0.1 kcal/mol
19,AGACTCACGTGGGGGC,0.06 kcal/mol
20,GATTCCACGTGGGGGT,-0.09 kcal/mol
21,GGGTACACGTGTAGCG,0.22 kcal/mol
22,GGTGGCACGTGAGTGC,0.26 kcal/mol
23,GTCGGCACGTGGGCCG,-0.14 kcal/mol

row,Sequence,relative binding free energy
1,TAAGACACGTGACGGG,0.13 kcal/mol
2,TGCTACACGTGTAGGT,0.08 kcal/mol
3,TTATTCACGTGGCGGG,0.23 kcal/mol
4,GGTGTCACGTGTAGCA,-0.02 kcal/mol
5,TTGTTCACGTGACATT,0.35 kcal/mol
6,TAGTTCACGTGGTTCC,0.41 kcal/mol
7,TGTGACACGTGATTAA,0.11 kcal/mol
8,GTTGTCACGTGGGTTC,0.08 kcal/mol
9,CGGTACACGTGTTTGT,-0.03 kcal/mol
10,GGTGTCACGTGCGTTC,0.08 kcal/mol
11,CGGTTCACGTGGACGT,0.28 kcal/mol
12,GTGAGCACGTGTGGGC,0.01 kcal/mol
13,TGATCCACGTGGTGAA,0.23 kcal/mol
14,CAAAGCACGTGGTGTT,-0.21 kcal/mol
15,CAGCTCACGTGGTTGT,0.36 kcal/mol
16,TAGGGCACGTGAGATG,0.16 kcal/mol
17,CTCGTCACGTGTGGCT,0.18 kcal/mol
18,TTATTCACGTGCTTGA,0.05 kcal/mol
19,CTGGACACGTGGTGTT,-0.02 kcal/mol
20,GTGGGCACGTGTGCTG,-0.11 kcal/mol
21,ATATTCACGTGTCTGT,0.2 kcal/mol
22,TGAGCCACGTGTGCGG,-0.15 kcal/mol
23,TTAATCACGTGGGGCT,0.02 kcal/mol

row,Sequence,relative binding free energy
1,AGTTCCACGTGTGTTG,0.04 kcal/mol
2,GTGGACACGTGTTTTT,0.14 kcal/mol
3,AATAGCACGTGGCAGG,-0.21 kcal/mol
4,TAGGGCACGTGGTTCT,-0.11 kcal/mol
5,AGGTTCACGTGTGTCC,0.3 kcal/mol
6,TAGGTCACGTGCGGAA,0 kcal/mol
7,CTGGACACGTGTTGTG,-0.02 kcal/mol
8,GCGTTCACGTGAGTTT,0.21 kcal/mol
9,TGATTCACGTGTTCAT,0.22 kcal/mol
10,TGAAGCACGTGTTGGC,-0.05 kcal/mol
11,TCTAGCACGTGGGTAG,-0.19 kcal/mol
12,CGTGTCACGTGATGGC,0.27 kcal/mol
13,CGATTCACGTGTTGAA,0.36 kcal/mol
14,GTACGCACGTGTGGTA,0 kcal/mol
15,AGTCGCACGTGTGTAG,-0.16 kcal/mol
16,ATTGGCACGTGGAATC,0.01 kcal/mol
17,ATGGCCACGTGCGGGA,-0.14 kcal/mol
18,TGTTGCACGTGGAGGT,0.04 kcal/mol
19,ATGGACACGTGGTGCT,-0.03 kcal/mol
20,TAGCGCACGTGAGATG,0.18 kcal/mol
21,CTCATCACGTGGGTAT,0.07 kcal/mol
22,AGAGTCACGTGTTTGT,0.12 kcal/mol
23,CATCGCACGTGGGGTT,-0.27 kcal/mol
